About 65 (0.1%) of roughly 45,000 compounds were called active. Calls follow the shape of the dose curve; as a rule, active = well fitted activation curve with a large enough effect; inconclusive = small, poorly fitted or top-dose-only effect; inactive = no such curve, though single readings can be large or run the other way. The list shows a part of the results.
Molecular target: Galactocerebrosidase (Homo sapiens) (UniProt P54803)
Assay: A Novel Cell-Based Assay to Identify Small Molecules for B -Galactocerebrosidase; also: 0% is about no effect; nearly all actives have a fitted effect of over 65% in size
Conditions: 145M-Twi-hGALC-G270D cells, HMU-beta-Gal fluorescence, 48 h; series mostly up to 57.5 µM; activation: at the top concentration
In short: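 qHTS, 1536-well; 145M-Twi-hGALC-G270D cells (WT line also made) in DMEM/F12 + 10% FBS; compound incubation on live cells; HMU-β-gal 0.1 mM final, pH 5.2, NaTC; carbonate stop; fluorescence increase = enhanced residual activity.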

Chain of UniProt P54803 (P54803 whole entry, looked up): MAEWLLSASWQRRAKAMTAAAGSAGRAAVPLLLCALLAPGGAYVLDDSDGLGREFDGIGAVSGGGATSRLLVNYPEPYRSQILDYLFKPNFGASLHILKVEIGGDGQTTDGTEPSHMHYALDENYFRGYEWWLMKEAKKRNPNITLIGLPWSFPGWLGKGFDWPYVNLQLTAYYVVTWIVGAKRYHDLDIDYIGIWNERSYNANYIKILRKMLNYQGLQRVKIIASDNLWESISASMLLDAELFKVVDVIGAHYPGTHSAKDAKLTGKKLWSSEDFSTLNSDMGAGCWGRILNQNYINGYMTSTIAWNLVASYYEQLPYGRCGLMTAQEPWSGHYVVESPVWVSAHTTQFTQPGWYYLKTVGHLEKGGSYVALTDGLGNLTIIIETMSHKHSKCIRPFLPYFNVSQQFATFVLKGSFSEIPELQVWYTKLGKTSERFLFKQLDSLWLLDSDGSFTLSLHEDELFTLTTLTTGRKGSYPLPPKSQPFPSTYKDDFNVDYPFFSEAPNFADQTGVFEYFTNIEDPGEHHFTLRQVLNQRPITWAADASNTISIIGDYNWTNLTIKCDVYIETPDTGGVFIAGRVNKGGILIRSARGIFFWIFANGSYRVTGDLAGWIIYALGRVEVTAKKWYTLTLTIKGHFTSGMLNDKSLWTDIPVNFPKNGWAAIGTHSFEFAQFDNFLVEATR

activation, inactive:
CN(C)c1ccc(CN(CC2CCCO2)C(=O)COc2ccccc2Cl)cc1 (configuration not stated) -11.2%, N#Cc1ccc(-c2cccs2)nc1SCc1c(F)cccc1Cl -18.9%, COc1ccc(N(CC(=O)NCc2ccc(F)cc2)S(=O)(=O)c2c(C)noc2C)cc1 -17.7%, CCCN(c1ccc(C(C)C)cc1)S(=O)(=O)c1ccc2c(c1)CCN2C(=O)CC -5.18%, COc1ccc(OC)c(-c2nc3c(C#N)c[nH]n3c2NC2CCCCC2)c1 -5.78%, Cc1cccc(OCC(=O)NC(Cc2c[nH]c3ccccc23)C(=O)O)c1C (configuration not stated) -14.9%, COc1ccc(CCNC(=O)C(=O)NCC(c2ccc3c(c2)OCO3)N2CCOCC2)cc1 (configuration not stated) 7.24%, CC1=C(C(=O)Nc2ccc(Cl)cc2)C(c2ccccc2C)n2ncc(C(=O)Nc3ccc(C)cc3)c2N1 (configuration not stated) -8.13%, CN(C)c1ccc(CNC(=O)C2CCCN(S(=O)(=O)c3ccc4c(c3)oc(=O)n4C)C2)cc1 (configuration not stated) -9.05%, CCc1nonc1NC(=O)c1oc2ccc(F)cc2c1C -9.57%, Cc1cc(OCCOCC[N+](C)(C)Cc2ccccc2)ccc1C(C)(C)CC(C)(C)C -8.37%, O=C(Nc1cc(F)ccc1F)N1CCC(CN2CCOCC2)CC1 -17.4%, COc1ccc(-n2cc(-c3ccccc3)c3c(NC4CCCCC4)ncnc32)cc1 -9.9%, Cc1ccc(-c2nc3cc(NC(=O)c4cc5ccccc5o4)ccc3o2)cc1 -24.1%, CCOC(=O)C1=C(C)NC(C)=C(C(=O)OCC)C1c1ccccc1/C=C/C(=O)OC(C)(C)C -13.5%, COc1ccc(S(=O)(=O)NCCc2sc(C)nc2C)cc1F -47.2%, Cn1c(=O)n(C/C=C/c2ccccc2)c(=O)c2c1nc1n2CCN1c1ccc(F)cc1 -2.79%, Cc1ccc2c(CC(=O)Nc3cccc(Cl)c3C)coc2c1 -19.4%, Cc1cccc(OCCCCn2c(C3CC(=O)N(c4ccccc4Cl)C3)nc3ccccc32)c1 (configuration not stated) -0.126%, CCOc1ccc(-n2c(SCC(=O)Nc3cccc(Cl)c3)nc3c(oc4ccccc43)c2=O)cc1 -7.11%, COc1ccc(C(=O)CC2(O)C(=O)Nc3c(C)cccc32)c(OC)c1OC (configuration not stated) -6.45%, CN1CCN(c2ncc3c(n2)CCN(Cc2cc(Br)cs2)C3)CC1 -6.73%, CCOc1ccc(-c2cnc(NCc3ccc(C(F)(F)F)cc3)n2C)cc1 -11.4%, CCN1C(=O)c2ccccc2Sc2ccc(NC(=O)COc3ccc(Cl)cc3)cc21 -17.2%, CCc1ccc(NC(=O)CSc2nc3c([nH]c4ccccc43)c(=O)n2-c2ccc(C)cc2)cc1 14.3%, Cc1ccc(CNC(=O)CCS(=O)(=O)c2cc3c4c(c2)CCN4C(=O)CC3)cc1 3.3%, O=C(Nc1ccc(Cl)cc1)c1cnn2c1NC(c1ccccc1)=CC2c1ccccc1 (configuration not stated) -12.4%, COc1cccc(CN(C(=O)COc2ccc(Cl)c(C)c2)C2CCS(=O)(=O)C2)c1 (configuration not stated) -12.3%, O=C(NCc1ccccc1)c1ccc2c(c1)N(Cc1ccccc1F)C(=O)c1ccccc1S2=O (configuration not stated) -8.95%, Cc1c(Cl)cccc1-n1ncc(C(=O)NCCN2CCN(C)CC2)c1C1CCN(C(=O)OC(C)(C)C)CC1 15.5%, O=C(Cn1c(=O)n(-c2ccccc2)c(=O)c2c3c(sc21)CCC3)c1ccc(F)cc1 -14.2%, Cc1ccc(Sc2ccc(N3CCC(C(=O)Nc4cc(C)cc(C)c4)CC3)nn2)cc1 -9.78%, Cc1ccc(C2CC(=O)n3nc(-c4ccc(Cl)cc4)nc3S2)cc1 (configuration not stated) -3.41%, COc1ccc(C(=O)CC(=O)c2ccc(C(C)(C)C)cc2)cc1 -14.3%, COc1cccc(N2CCN(C(=O)c3cnc4c(-c5ccccc5)c(C)nn4c3C)CC2)c1 -17.1%, COc1ccccc1C(=O)Nc1c(C(=O)Nc2cc(Cl)ccc2C)sc2nc(C)cc(C)c12 -9.87%, COc1cccc(CN2C(=O)c3ccccc3Sc3ccc(C(=O)NCc4ccccc4)cc32)c1 -9.4%, O=C(Nc1ccccc1)c1cnc(N2CCCCC2)c2ccccc12 -12.5%, COc1ccc(-c2cc(C)no2)cc1S(=O)(=O)N1CCN(c2cccc(C)c2)C(C)C1 (configuration not stated) -33.6%, Cc1ccccc1NC(=O)NCCc1c[nH]c2ccccc12 -14.6%, CCOC(=O)c1scc(-c2ccccc2)c1S(=O)(=O)N1CCN(c2ccc(Cl)cc2)CC1 -15.1%, CCN(CC)c1cc(C)c2cc(NC(=O)c3ccc(OC)c(OC)c3)ccc2n1 -13.6%, Cc1ccc(NC(=O)c2ccc(NC(=O)N3CCSc4ncccc43)cc2)c(Cl)c1 -13.5%, Cc1nc(SCC(=O)N2CCN(c3ccccc3)CC2)[nH]c(=O)c1C -10.8%, COc1cccc2cc(C(=O)N3CCN(c4cc(C)ccc4C)CC3)c(=O)oc12 -14%, Fc1ccccc1Nc1c2c(nc3ccccc13)CCC2 -10.5%, CCc1ccccc1NC(=O)CN(C)S(=O)(=O)c1cccc2nsnc12 -30.4%, COc1ccc(-c2ccc(NS(=O)(=O)c3ccc(NC(C)=O)cc3)cc2)nn1 -11.5%, CCN(CC)c1ccc(NC(=O)c2c(C)nn(-c3ccc(F)cc3)c2-n2cccc2)c(C)c1 -38.8%, COc1ccc(OC)c(NC(=O)c2c(NCc3cccs3)sc3c2CCCCC3)c1 -10.3%, O=C(CN1C(=O)C2(SCC(=O)N2c2ccc(F)c(F)c2)c2ccccc21)NCCc1ccccc1 (configuration not stated) -25.8%, COc1ccc(NC(=O)c2oc3ccc(S(=O)(=O)N4CCOCC4)cc3c2C)c(OC)c1 1.09%, COc1ccc(CCNC(=O)c2cnn(-c3ccc(F)cc3)c2C2CCN(C(=O)OC(C)(C)C)CC2)cc1OC -14.6%, COc1ccc(N2CCN(C(=O)c3cc4c(=O)n(Cc5cccnc5)ccc4nc3C)CC2)cc1 -8.48%, CCOc1cc(C(c2c(C)[nH]n(-c3ccccc3)c2=O)c2c(C)[nH]n(-c3ccccc3)c2=O)ccc1O -4.35%, COc1ccc(-c2noc(N3CCC(C(=O)Nc4cccc(C)c4C)CC3)n2)cc1 -11.3%, CCc1ccc(NC(=O)CSc2nc3nc(C)cc(C)n3n2)cc1 -7.57%, CCOc1cc(CNC(=O)c2cc(-c3ccccc3)n[nH]2)cc(OCC)c1OCC -6.57%, COc1ccc(CCNC(=O)c2ccc3c(c2)CCN3S(=O)(=O)c2ccccc2)cc1 -10.8%, CCOc1ccc(/C=C/c2nc(C#N)c(N3CCN(CC)CC3)o2)cc1 -3.39%, O=C(NCCc1ccc(F)cc1)C(=O)NCC(c1ccco1)S(=O)(=O)c1ccccc1 (configuration not stated) 5.55%, CCN(CC)S(=O)(=O)c1ccc(NC(=O)Cn2ncc3c([nH]c4ccccc43)c2=O)cc1 -4.89%, Cc1[nH]c2ccc(C(=O)N3CCN(c4ccccc4F)CC3)cc2c1C -4.35%, CC(Oc1ccccc1)C(=O)Nc1ccc(C(=O)OCc2cc(=O)n3nc(C(C)C)sc3n2)cc1 (configuration not stated) -6.64%, Cc1ccccc1NC(=O)CSc1c(C(C)C)cnc2c1c(=O)n(C)c(=O)n2C -2.38%, Cc1cc(F)ccc1NC(=O)c1csc2c1CCC(C)C2 (configuration not stated) -7.5%, Cc1cc(C)cc(OCC(=O)Nc2nc(-c3ccc(F)cc3)ns2)c1 5.22%, CCOc1ccccc1NC(=O)CSc1nc2ccccc2nc1N1CCOCC1 -8.06%, COC(=O)c1cc(NS(=O)(=O)c2ccc3c(c2)OCCO3)ccc1Cl -52.2%, COc1ncnc(NS(=O)(=O)c2ccc(N)cc2)c1OC -17.3%, CC(=O)OCC(=O)[C@@]1(O)[C@H](C)C[C@H]2[C@@H]3CCC4=CC(=O)C=C[C@]4(C)[C@@]3(F)[C@@H](O)C[C@@]21C -6.23%, COc1ccc(Cn2c(C(=O)O)c(CNCc3ccc(OC)cc3OC)c3ccc(C)cc32)cc1 -5.81%, COc1ccc(NC(=O)CSCc2cc(=O)c3cc(C)ccc3[nH]2)cc1 -9.04%, Fc1ccc(CNCCCSc2nnnn2-c2ccccc2)cc1 -9.3%, COc1ccc(CCCc2nnc(SCC(=O)Nc3cc(F)ccc3C)o2)cc1 -21.5%, COc1cc(Cl)c(C)cc1NC(=O)CC1Oc2ccccc2NC1=O (configuration not stated) -9.23%, CCOc1ccc(CNC(=O)c2ccc3c(Cl)c4c(nc3c2)CCCC4)cc1 -2.59%, CN(C(=O)CSc1nc2ccc(NC(=O)c3cccc(F)c3)cc2s1)c1ccccc1 -26.5%, COc1ccc(C(=O)Nc2ccc(-c3nc4ncccc4o3)cc2C)cc1Br -3.54%, CCn1c(=O)c2cc(C(=O)Nc3cccc(C(F)(F)F)c3)sc2c2ccccc21 -0.455%, COc1ccc(NC(=O)c2c(NCc3ccc(C)o3)sc3c2CCCCC3)c(OC)c1 -12.8%, CCNC(=O)CCCN1C(=O)CCn2nc(-c3cccn3C)cc21 -16.9%, CCC(C(=O)O)c1ccc(N2Cc3ccccc3C2=O)cc1 (configuration not stated) -5.99%, O=C(Oc1ccccc1)c1ccccc1O -13.7%, Cc1ccc(CNC(=O)CSCc2ccccc2C)cc1 -0.733%, CCn1cc(C(=O)NCCc2ccc(Cl)cc2)c(=O)c2cc(S(=O)(=O)N(C)C3CCCCC3)ccc21 -8.87%, Cc1ccc2nc(NCc3ccccc3)c3nncn3c2c1 -10.1%, CCC(Sc1nc2nccnc2c(=O)n1Cc1ccccc1Cl)C(=O)NC1CCCCC1 (configuration not stated) -4.79%, COc1ccc(-n2c(/C=C/c3cccc4ccccc34)nc3ccccc3c2=O)cc1OC -17.6%, O=S(=O)(c1ccc(C2CCCCC2)cc1)N1CCN(c2cc(Cl)ccc2Cl)CC1 -10.8%, COc1ccc(C(=O)c2ccccc2)c(O)c1 -16.8%, CCC(CC)C(=O)Nc1nnc(S(=O)(=O)N(C)c2cc(C)cc(C)c2)s1 -14%, Cc1cccc(N(CC(=O)NCCc2ccccc2)S(=O)(=O)c2ccccc2)c1C -19.9%, COc1ccc(CCNC(=O)c2cc3c(=O)n4cccc(C)c4nc3n2C)cc1 -0.584%, Cc1ccc(-c2csc(-c3c(N)c(C(=O)c4ccc5c(c4)OCO5)n4ccccc34)n2)cc1C -9.94%, COc1cc2c(cc1OC)C(COc1ccc3c(C)cc(=O)oc3c1)N(C(=O)Cc1ccc(F)cc1)CC2 (configuration not stated) -11.4%, Cc1cc(C)cc(-n2ccn(CC(=O)NCCc3ccccc3)c(=O)c2=O)c1 -7.23%

— PubChem BioAssay AID1159614 (National Center for Advancing Translational Sciences (NCATS), 2016)
